Experimental data reported in US9745597B2, “Compositions and methods for controlling fungal and bacterial diseases in plants” (priority 2014, dated 2017).
Like-named read-outs stand apart in the source and are kept apart here.

Assays:
[1] = tested on: Pseudomonas syringae pv. tomato; assay: In vitro control of Pseudomonas syringae pv. tomato, OD600 in 96-well plates (Example 26); assay type: cell-based; details: bacterial growth by OD600, mixture = 95% cell-free whole broth + 5% adjuvant
Experimental: A whole broth culture of Bacillus subtilis QST713 was prepared in a soy-based medium. Bacillus subtilis cells were removed from the whole broth culture by centrifugation. […] After several hours, the OD600 in each well was measured and compared to the initial OD600 to determine the relative bacterial growth compared to that of the bacterial suspension in the untreated well.

[2] = tested on: Botrytis cinerea; assay: Effect of equilibration of adjuvant mixtures on in vivo control of Botrytis cinerea (Example 32); details: average of three measurements
Experimental: The mixture was diluted in DI water and applied to plants as soon as possible afterwards (“T=0” treatment) or allowed to equilibrate for 24 hours prior to dilution in DI water and application to plants (“T=24” treatment). […] The preparation of the third treatment is similar to that of tank mixes of adjuvants and antifungal agents commonly used by growers. […] The treatments were applied to plants and allowed to dry.

[3] = tested on: Phytophthora infestans; details: rate 0.3%; 3 days after inoculation
Experimental: […]® ASO (Bacillus subtilis QST713 fermentation product) and the adjuvant GENAPOL® LRO (sodium C12/C14-fatty alcohol diglycol ether sulfate) were diluted in water to the desired concentrations and applied separately and in combination to young tomato plants. After the spray coating had dried on, the plants were inoculated with an aqueous spore suspension of Phytophthora infestans. Subsequently the plants were placed in an incubation cabinet at approximately 20° C. and a relative atmospheric humidity of 100%. The test was evaluated 3 days after the inoculation. 0% means an efficacy which corresponds to that of the untreated control, while an efficacy of 100% means that no disease is observed.

[4] = tested on: Botrytis cinerea; assay: In vivo preventive test on Botrytis (beans) (Example 19); details: lesion size 3 days after inoculation
[5] = tested on: Phytophthora infestans
Experimental: (§1) The present study investigated the efficacy against a variety of plant pathogens of the commercial product, […]® ASO (Bacillus subtilis QST713 fermentation product), with and without GENAPOL® LRO (sodium C12/C14-fatty alcohol diglycol ether sulfate). The application rates of […]® ASO refer to the amount of (1.67%) Bacillus subtilis QST713 contained in the product […]® ASO.
(§2) ® ASO was diluted in water to concentrations of 1000 ppm, 500 ppm, 250 ppm, and 125 ppm and applied to plants with or without GENAPOL® LRO applied at a concentration of 3000 ppm. Subsequently, the plants were inoculated with the various plant pathogens and scored for percent disease control with the following eight plant pathogen bioassays: (1) tomato late blight, Phytophthora infestans (“Late Blight”); (2) grape downy mildew, Plasmopara viticola (“Downy Mildew”); (3) cucumber powdery mildew, Sphaerotheca fuliginea (“Powdery Mildew”); (4) apple scab, Venturia inaequalis (“Scab”); (5) tomato early blight, Alternaria solani (“Early Blight”); (6) brown rust of snap bean, Uromyces appendiculatus (“Bean Rust”); (7) Asian soybean rust, Phakopsora pachyrhizi (“Soy Rust”); and (8) Botrytis grey mould on snap beans, Botrytis cinerea (“Grey Mould”).

[6] = tested on: Pseudomonas syringae pv. tomato; assay: In vivo control of Pseudomonas syringae pv. tomato on tomato plants (Example 31); details: average of three measurements
[7] = tested on: Botrytis cinerea; assay: In vivo preventive test on Botrytis (beans) (Example 14); details: rate 0.3%; lesion size 3 days after inoculation
Experimental: […]® ASO (Bacillus subtilis QST713 fermentation product) and the adjuvants AGNIQUE® PG8107G (C8-10 alkyl polyglycoside), GENAPOL® LRO (sodium C12/C14-fatty alcohol diglycol ether sulfate), SC-TankMix (rapeseed oil methyl ester; castor oil ethoxylated) or MERO® (rapeseed oil methyl ester) were diluted in water to the desired concentrations and applied separately and in combination to young bean plants. After the spray coating had dried on, 2 small pieces of agar covered with growth of Botrytis cinerea were placed on each leaf. The inoculated plants were placed in a darkened chamber at 14° C. and a relative atmospheric humidity of 100%. 3 days after the inoculation, the size of the lesions on the leaves was evaluated. 0% means an efficacy which corresponds to that of the untreated control, while an efficacy of 100% means that no disease is observed.

[8] = tested on: Sphaerotheca fuliginea; assay: Cucumber powdery mildew bioassay (Example 2); details: GENAPOL LRO 3000 ppm
Experimental: as §1, §2

[9] = tested on: Plasmopara viticola; assay: Grape downy mildew bioassay (Example 2)
Experimental: as §1, §2

[10] = tested on: Venturia inaequalis; assay: Apple scab bioassay (Example 2)
Experimental: as §1, §2

[11] = tested on: Botrytis cinerea; assay: Botrytis grey mould on snap beans bioassay (Example 2)
Experimental: as §1, §2

[12] = tested on: Botrytis cinerea; assay: In vivo preventive test of Bacillus products on Botrytis (pepper) (Example 33)
Experimental: Several commercially available Bacillus products formulated as wettable powders (WP) were mixed with GENAPOL® LRO (sodium C12/C14-fatty alcohol diglycol ether sulfate). The Bacillus products included […]® MAX (Bacillus subtilis QST713), DOUBLE NICKEL55™ (Bacillus amyloliquefaciens strain D747), SUBTILEX® (Bacillus subtilis MBI600), and TAEGRO® (Bacillus subtilis var. amyloliquefaciens FZB24).
The treatments were prepared by mixing 20% Bacillus product (WP) with 5% GENAPOL® LRO (sodium C12/C14-fatty alcohol diglycol ether sulfate) and diluting the mixture in DI water. Control treatments included 20% Bacillus product (WP) without GENAPOL® LRO (sodium C12/C14-fatty alcohol diglycol ether sulfate) in DI water and 5% GENAPOL® LRO (sodium C12/C14-fatty alcohol diglycol ether sulfate) in DI water.
The concentrations indicated in the table represent dilution of the 5% GENAPOL® LRO, 20% Bacillus product (WP), or 20% Bacillus product (WP)+5% GENAPOL® LRO to the percentages (v/v) shown. The treatments were applied to pepper plants and allowed to dry. The next day, the pepper plants were inoculated with a suspension of Botrytis cinerea. After disease was evident in the untreated controls the plants were evaluated for efficacy of disease control. Each efficacy value represents the average of three measurements. 0% means an efficacy which corresponds to that of the untreated control, while an efficacy of 100% means that no disease is observed.

sodium C12/C14-fatty alcohol diglycol ether sulfate [GENAPOL ® LRO]
Efficacy in % Found ([1]; rate 0.11%): 25% | Efficacy in % Found ([1]; rate 0.22%): 25% | Efficacy in % ([2]; rate 0.50% v/v): 0% | Efficacy in % ([2]; rate 1% v/v): 0% | Efficacy in % ([2]; rate 2% v/v): 0% | Efficacy in % ([2]; rate 4% v/v): 30% | Efficacy in % ([2]; rate 8% v/v): 50% | Efficacy in % Found [3]: 0% | Efficacy in % Found ([4]; rate 0.03%): 39% | Efficacy in % Found ([4]; rate 0.06%): 39% | Efficacy in % Found ([4]; rate 0.12%): 43% | Efficacy in % Found ([4]; rate 0.25%): 55% | Percent Disease Control Late Blight ([5]; GENAPOL LRO 3000 ppm): 0% | Efficacy in % Found ([5]; Late Blight, rate 3000 ppm): 0% | Efficacy in % ([6]; rate 0.25% v/v): 10% | Efficacy in % ([6]; rate 0.50% v/v): 50% | Efficacy in % ([6]; rate 1% v/v): 60% | Efficacy in % ([6]; rate 2% v/v): 74% | Efficacy in % ([6]; rate 4% v/v): 66% | Efficacy in % Found [7]: 23% | Percent Disease Control Powdery Mildew [8]: 20% | Efficacy in % Found ([9]; Downy Mildew, rate 3000 ppm): 59% | Percent Disease Control Downy Mildew ([9]; GENAPOL LRO 3000 ppm): 59% | Percent Disease Control Scab ([10]; GENAPOL LRO 3000 ppm): 84% | Efficacy in % Found ([10]; Scab, rate 3000 ppm): 84% | Percent Disease Control Grey Mould ([11]; GENAPOL LRO 3000 ppm): 23% | Efficacy in % Found ([11]; Grey Mould, rate 3000 ppm): 23% | Efficacy in % Found ([12]; rate 1% (v/v dilution of 5% GENAPOL LRO or 20% Bacillus product WP)): 10% | Efficacy in % Found ([12]; rate 2% (v/v dilution of 5% GENAPOL LRO or 20% Bacillus product WP)): 24% | Efficacy in % Found ([12]; rate 4% (v/v dilution of 5% GENAPOL LRO or 20% Bacillus product WP)): 69%
